Measured values as given in PubChem BioAssay (NCATS).
Where “and” joins values, the source holds several entries; their conditions need not be identical. Identical values can stand only once. Inconclusive results, whose numbers are uncertain, are shown with a selection of clear calls. A potency beside an inconclusive call is a rough fit, not a confirmed value. Calls of active or inactive are those of the source. Calls follow the shape of the dose curve; as a rule, active = well fitted curve in the direction sought with a large enough effect; inconclusive = small, poorly fitted or top-dose-only effect, or another doubt; inactive = no such curve, though single readings can be large; an effect the other way counts as inactive or inconclusive.

Key:
CASKI = experiment: Primary qHTS to identify gynecologic anti-cancer compounds using libraries of approved drugs and bioactive compounds (AID 1345084); conditions: Gynecologic cancer cell panel viability, ATPlite luminescence, 48 h; series mostly up to 57.5 µM; also: nearly all actives have a fitted effect of over 55% in size
Procedure, shortened: (§1)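 Cell viability after 48 h drug treatment, ATPlite luminescence readout; five doses.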

Es-2 = experiment: as above; conditions: Gynecologic cancer cell panel viability, ATPlite luminescence, 48 h; series mostly up to 57.5 µM
Procedure, shortened: as §1

HeLa = experiment: as above; conditions: Gynecologic cancer cell panel viability, ATPlite luminescence, 48 h; series mostly up to 57.5 µM
Procedure, shortened: as §1

JEG-3 = experiment: as above; conditions: Gynecologic cancer cell panel viability, ATPlite luminescence, 48 h; series mostly up to 57.5 µM
Procedure, shortened: as §1

OV90 = experiment: as above; conditions: Gynecologic cancer cell panel viability, ATPlite luminescence, 48 h; series mostly up to 57.5 µM
Procedure, shortened: as §1

SKOV3 = experiment: as above; conditions: Gynecologic cancer cell panel viability, ATPlite luminescence, 48 h; series mostly up to 57.5 µM
Procedure, shortened: as §1

Tov112D = experiment: as above; conditions: Gynecologic cancer cell panel viability, ATPlite luminescence, 48 h; series mostly up to 57.5 µM
Procedure, shortened: as §1

[1] = qHTS assay to identify inhibitors of the type 1 interferon - major histocompatibility complex class I in skeletal muscle: Counter screen cell viability and HiBit confirmation (AID 1347412); conditions: iHSKM muscle cells + IFN-b, HiBiT or CellTiter-Glo, 24 h; also: nearly all actives have a fitted effect of over 60% in size
Procedure, shortened: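 Myoblasts (C25cl48, HLA-B HiBiT) seeded in medium without dexamethasone, IFN-b 4 ng/ml added except unstimulated columns; 1 hr later compounds pinned (12-pt 1:3, top 46 uM final). Incubated 24 hrs, lysed 10 min, luminescence measured.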

Hek293T = experiment: Primary qHTS to identify gynecologic anti-cancer compounds using libraries of approved drugs and bioactive compounds (AID 1345084); conditions: Gynecologic cancer cell panel viability, ATPlite luminescence, 48 h, control line for the selectivity index; series mostly up to 57.5 µM; also: nearly all actives have a fitted effect of over 55% in size
Procedure, shortened: as §1

PA-1 = experiment: as above; conditions: Gynecologic cancer cell panel viability, ATPlite luminescence, 48 h; series mostly up to 57.5 µM
Procedure, shortened: as §1

Tov-21-G = experiment: as above; conditions: Gynecologic cancer cell panel viability, ATPlite luminescence, 48 h; series mostly up to 57.5 µM
Procedure, shortened: as §1
Potency is read from the fitted curve at half-maximal effect; tags tell the direction and shape of the fitted curve.

Compound	Potency (CASKI)	Potency (Es-2)	Potency (HeLa)	Potency (JEG-3)	Potency (OV90)	Potency (SKOV3)	Potency (Tov112D)	Potency ([1]; Viability)	Potency (Hek293T)	Potency (PA-1)	Potency (Tov-21-G)	Potency ([1]; HiBiT)
Nc1ncnc2c1c(-c1cccc(OCc3ccccc3)c1)cn2C1CC(CN2CCC2)C1 (stereo not given)	active: 28.2 µM	inconclusive: 35.5 µM [cytotoxic, single point]	inconclusive: 22.4 µM [cytotoxic, partial curve, poor fit]	inconclusive: 39.8 µM [cytotoxic, partial curve, poor fit]	active: 22.4 µM	inconclusive: 39.8 µM [cytotoxic, partial curve, poor fit]	inconclusive: 39.8 µM [cytotoxic, single point]	inconclusive: 15.7 µM [cytotoxic, partial curve]				
COc1ccc(-c2ccc3ncc4c(c3c2)n(-c2ccc(N3CCNCC3)c(C(F)(F)F)c2)c(=O)n4C)cn1	active: 0.794 µM	inconclusive: 22.4 µM [cytotoxic, partial curve, poor fit]	active: 1.12 µM	inconclusive: 31.6 µM [cytotoxic, single point]	active: 31.6 µM	inconclusive: 3.55 µM	active: 15.8 µM	active: 4.43 µM	inconclusive: 25.1 µM [cytotoxic, partial curve, poor fit]	active: 0.316 µM	active: 35.5 µM	inconclusive: 0.496 µM [inhibitor, full curve, poor fit]
c1cncc(CN2CCC(n3ncc4c(N5CCOCC5)nc(-c5ccc6[nH]ccc6c5)nc43)CC2)c1	active: 10 µM	inconclusive: 39.8 µM [cytotoxic, single point]	inconclusive: 28.2 µM [cytotoxic, single point]	inconclusive: 39.8 µM [cytotoxic, single point]	active: 22.4 µM	active: 10 µM	active: 28.2 µM		active: 11.2 µM	active: 17.8 µM	active: 12.6 µM	
Cc1cnc(NC(=O)C2=C(O)c3ccccc3S(=O)(=O)N2C)s1	inactive											
COc1cc2c(cc1-c1c(C)noc1C)ncc1[nH]c(=O)n([C@H](C)c3ccccn3)c12	active: 3.98 µM	inconclusive: 8.91 µM [cytotoxic, partial curve]	inconclusive: 1.12 µM [cytotoxic, full curve]	active: 12.6 µM	inconclusive: 3.98 µM [cytotoxic, full curve, poor fit]	inconclusive: 1.12 µM [cytotoxic, full curve, poor fit]	inconclusive: 3.16 µM [cytotoxic, partial curve]				inconclusive: 7.08 µM [cytotoxic, partial curve]	inconclusive: 3.52 µM [inhibitor, full curve]
CCCCc1oc2ccc(NS(C)(=O)=O)cc2c1C(=O)c1ccc(OCCCN(CCCC)CCCC)cc1	inconclusive: 39.8 µM [cytotoxic, single point] and inconclusive: 35.5 µM [cytotoxic, single point]	inconclusive: 39.8 µM [cytotoxic, single point]	inconclusive: 35.5 µM [cytotoxic, single point]	inconclusive: 39.8 µM [cytotoxic, single point]	inconclusive: 31.6 µM [cytotoxic, single point] and inconclusive: 39.8 µM [cytotoxic, single point]	inconclusive: 35.5 µM [cytotoxic, single point] and inconclusive: 7.94 µM [cytotoxic, full curve, poor fit]	inconclusive: 39.8 µM [cytotoxic, single point] and inconclusive: 28.2 µM [cytotoxic, single point]		inconclusive: 28.2 µM [cytotoxic, single point] and inconclusive: 31.6 µM [cytotoxic, single point]	inconclusive: 31.6 µM [cytotoxic, single point]	inconclusive: 35.5 µM [cytotoxic, single point] and inconclusive: 31.6 µM [cytotoxic, single point]	
